# In the supplement of paper PMC5499739:
# In all, about 16,000 sequences were measured (“Z-score”: median about -0.37, highest 2% from about 3.1 on). Some of the results follow.
# System: RBM10 RRM1-ZnF-RRM2 (GST-tagged construct)
# Assay: RNAcompete 7-mer binding Z-score; higher = stronger binding preference
# In short: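 Each heptamer motif was given a one-sided Z-score for enrichment across the probes that contained it. GST-tagged RBM10 constructs (20 pmol) were combined with 1.5 nmol of a designed pool of 241 399 RNAs of up to 41 nt, transcribed from microarray-derived DNA templates. Binding took place in 1 ml Hepes pH 7.8 buffer containing KCl, NaCl, glycerol, DTT, BSA and glutathione Sepharose beads for 30 min at 4°C. After four 2-min washes at 4°C, bound RNA was identified by microarray hybridisation.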
row,Sequence,RNAcompete 7-mer binding Z-score
1,GGUUUUC,0.417
2,CGUUGGU,0.363
3,GUACACG,0.472
4,GCUUGCU,-0.737
5,AGUUCGG,0.202
6,CACGUGA,-0.0525
7,CGCUUGA,-0.821
8,GGUGAAU,1.48
9,UGGAGCG,2.28
10,AGCGUCA,-0.235
11,GACAGCG,0.385
12,AUAUAAU,-0.366
13,GGGAUCA,2.44
14,CCGGCUC,-0.548
15,CGGUAAA,0.352
16,CAGAGCG,1.02
17,GAGAAUA,0.603
18,UGCUAGG,0.355
19,CGUAUCG,-0.34
20,UUUAGAA,-0.621
21,UGUGCGG,1.33
22,GGGAAUG,3.43
23,AAAAUCU,-0.606
24,UUAUCCC,-0.748

row,Sequence,RNAcompete 7-mer binding Z-score
1,UUGGACG,0.949
2,CUUAUUU,-0.854
3,CAAGACU,-0.402
4,AAGUUAA,0.192
5,AUGUCAU,-0.497
6,CGGCGUG,1.06
7,CCUCUCA,-0.854
8,UGGGCAC,1.77
9,CCUAUAC,-0.744
10,ACGUAUA,-0.198
11,UCUAAGC,-0.774
12,GGCCACC,-0.533
13,ACCAUGG,0.61
14,GUGGAUA,2.31
15,AUAUCGA,-0.173
16,CAUGUCU,-0.774
17,CGUGUUA,-0.475
18,AUACACA,-0.187
19,UUGGCGA,0.771
20,GGGGUCG,2.56
21,CGUGUAC,-0.235
22,GAGGGUA,4.4
23,UAAUGGA,1.64
24,GUACCUU,-0.602

row,Sequence,RNAcompete 7-mer binding Z-score
1,CGGGUGC,1.94
2,UGCCCUC,-0.81
3,CGCCUCU,-1
4,CUACCCG,-0.799
5,GAUGAUG,1.36
6,AACUAUU,-0.694
7,GAUCUCU,-0.846
8,ACACUAC,-0.653
9,GAUUAAU,-0.111
10,CCCCAAG,-0.464
11,UCUAGAA,-0.617
12,CUAUGCG,-0.566
13,GAAUACU,-0.493
14,AUAGGUA,2.29
15,GGAGCAU,1.58
16,ACUUACA,-0.668
17,UAAUCCG,-0.406
18,AGCCUGU,-0.719
19,AGCGAAG,1.07
20,CGCGUCC,-0.657
21,CAUUGAG,-0.0743
22,CAUAGUG,0.206
23,CGGGUUA,1.75
24,GCGUCCC,-0.471

row,Sequence,RNAcompete 7-mer binding Z-score
1,AUUCGAG,-0.114
2,GACGAGC,0.0932
3,AGUCACU,-0.388
4,GCGCCAA,-0.464
5,UACAGCU,-0.537
6,ACGUUUU,-0.774
7,GGAUUAA,0.789
8,GGCAGUA,1.57
9,ACUGGCA,-0.191
10,AAAGGCG,2.16
11,UUCCGGU,-0.431
12,GUGGCAC,1.05
13,GACUGCA,-0.46
14,AAUGGGU,4.1
15,ACGAUGC,-0.271
16,ACCGGCC,-0.69
17,UCCGGGU,0.731
18,CCGCUCG,-0.526
19,UGUUAGG,0.607
20,ACCUAAG,-0.675
21,GUAAAGG,3.36
22,UCUCAAC,-0.774
23,AGCCAAC,-0.315
24,ACGAGAU,0.0204

row,Sequence,RNAcompete 7-mer binding Z-score
1,ACGAUAA,0.195
2,UUUAAAA,-0.595
3,UAUCAAA,-0.358
4,AUUAGAU,-0.202
5,GAAUUAU,-0.195
6,AGUCCGC,-0.715
7,GCACGUG,0.21
8,GUAACUG,0.155
9,CGCGGGU,1.81
10,AGGUCUU,-0.402
11,GACCAUA,-0.675
12,CUUCCUG,-0.857
13,GGUUAAC,1.33
14,ACGAGGG,3.71
15,CGGCCAC,-0.326
16,UAUGGGC,1.64
17,UUCGCCU,-0.927
18,ACACAAU,-0.409
19,GUGUACU,-0.227
20,UCCAACA,-0.584
21,GAACGAG,1.28
22,CUAGACU,-0.723
23,UGCGUGG,1.63
24,GAUCGCC,-0.894

row,Sequence,RNAcompete 7-mer binding Z-score
1,AAUCUCG,-0.792
2,CCCAAGU,-0.511
3,UGUACAA,-0.307
4,UGAAUUC,-0.694
5,UUUUACU,-0.803
6,UUAUCCG,-0.734
7,CUGCACA,-0.544
8,ACGGUUA,0.742
9,CAACACA,-0.144
10,UCACGUU,-0.741
11,GGCGGAU,1.74
12,AAGUAGA,0.589
13,CUGGGCU,0.101
14,UGACUCG,-0.431
15,CCAGACC,-0.814
16,CAAAAAG,-0.253
17,AGCUAGU,-0.195
18,CGUUGGA,0.548
19,CCUGUUA,-0.81
20,GGACGAC,1.18
21,GCAAGGA,2.65
22,GCCUCAC,-0.683
23,AAGGGAG,4.04
24,GAGAGUG,1.66

row,Sequence,RNAcompete 7-mer binding Z-score
1,CCCGGGG,0.585
2,GGAUCGU,0.388
3,GACACUG,-0.548
4,GACGUCC,-0.876
5,UAUGUCG,-0.326
6,AUGCAUG,-0.0525
7,CUCCAUU,-0.846
8,GCGUCUA,-0.486
9,CUAACUC,-0.657
10,UAUUCCU,-0.803
11,UUCAAAC,-0.763
12,GGUAAGC,1.79
13,GGUACUA,0.701
14,UCAUCUA,-0.803
15,CGUGACU,-0.275
16,UUGGAAA,0.538
17,GGUGGAG,3.9
18,UGAGGGG,3.5
19,UAAUGUG,0.432
20,AUCAACC,-0.686
21,UCUUAGG,-0.355
22,UUAUCCU,-0.901
23,UCGCGUG,-0.0889
24,GUGGCGG,3.22

row,Sequence,RNAcompete 7-mer binding Z-score
1,UCCGCGA,-0.701
2,GAAGGGC,3.32
3,UAGGGAA,3.46
4,CUUCGGC,-0.766
5,GCGCACU,-0.442
6,CCGAUUG,-0.606
7,GCGCAGC,0.202
8,UCUUAAG,-0.65
9,GCGUAUC,-0.278
10,CGAUGCU,-0.635
11,CGGCUCA,-0.53
12,ACGCAUU,-0.592
13,AUCUUUU,-0.657
14,AGAGAAA,0.621
15,UAGGCGA,1.82
16,GACUCGG,-0.256
17,GGCUGCC,-0.078
18,AUUGUUC,-0.61
19,AUUACCG,-0.49
20,AUUAUUA,-0.57
21,AAUGACC,-0.482
22,UGACUUA,-0.69
23,UGCCGAC,-0.715
24,AAUCCCA,-0.73

row,Sequence,RNAcompete 7-mer binding Z-score
1,CGACACA,-0.311
2,UGCUAUU,-0.661
3,CACGGUC,-0.362
4,CCUUCGC,-0.967
5,UAAAAUU,-0.504
6,CAGUACG,-0.103
7,UAAGCAU,-0.555
8,UAUGAGA,0.315
9,GCCAUCU,-0.817
10,AAUUGAG,0.366
11,ACGGCUC,-0.468
12,GGCCAGC,-0.0889
13,UGGGACA,2.25
14,GCUAGCA,-0.235
15,GGAACUG,0.909
16,UUACUGU,-0.53
17,UGUGGCU,0.345
18,CGAAGGU,1.34
19,AGGGAAG,4.36
20,UUAAUGU,-0.311
21,UGCGAGU,0.206
22,UGGUAUC,0.104
23,AAUGAGC,0.399
24,CUAUACU,-0.803

row,Sequence,RNAcompete 7-mer binding Z-score
1,GUCACAG,0.487
2,UACCAAA,-0.078
3,UCUCAGU,-0.679
4,CUGUACU,-0.803
5,CAUACAG,-0.231
6,CUACAUA,-0.511
7,CGCCGUC,-0.486
8,AGAUACU,-0.701
9,GUAGACG,1.48
10,CGUAUCU,-0.599
11,AACUACU,-0.704
12,AGAGUGC,0.0786
13,UUCGAUG,-0.307
14,AGCAUAG,0.567
15,CUGUCGU,-0.639
16,CCCGGAA,-0.5
17,AACCGGA,0.414
18,UUCCGCC,-0.836
